# Results reported in article PMC12136788.
# Some of the results follow.
# B1: chr22:38882006:38882007:-_ENSG00000100201_ENST00000396821|hu_mus|FALSE|FALSE (ssRNA)
# RNA: GGGAGUUCUACAGUCCGACGAUCUGGAGGAGGGGGAGGGGGAGGGGGAGGGUACUGGUAAGCAGUCUGCCCCAUGUAGCCUAUCAUAUUGGUAGCUCCUGGAGGCUGUGCAAACUGCUGUGACAUCAGUGGCUGUGGCUGCUGCAACAGAGGAUUGAGCAUCA
# B2: 42737102_42738829_3480_CDS_ENSG00000103994_ENST00000263805|human|control|control (ssRNA)
# RNA: GGGAGUUCUACAGUCCGACGAUCAUCCAUGCACUGCAAUGACUUACUAAGUUCUUCCUCCCUUAAAGAAAUAUUCAGCAGCUGGUCAACCUGAGAACGUUCUUUUUUUCCUUUAAUUUUCCUUCUUUUAUUUUUUCUCUCAAGCAACAGAGGAUUGAGCAUCA
# B3: 27614021_27614141_989_CDS_ENSG00000108256_ENST00000225388|human|control|control (ssRNA)
# RNA: GGGAGUUCUACAGUCCGACGAUCUUUGGAGGCAACAGCUGAAGCAUGCUUUCCUUUGGGCCGAUCAUCAAACUUUUUGCUGCUCACACCAGGUUUACUAUCUGAGCUUUUCCGAAGCAUAUCACCCACAGCAGGUUUUCCUCGCAACAGAGGAUUGAGCAUCA
# B4: chr2:37284132:37284133:-_ENSMUSG00000066798_ENSMUST00000053098|mus_mus|motif|central (ssRNA)
# RNA: GGGAGUUCUACAGUCCGACGAUCAUACAGAUUGGGUGGGGGGCAACACUACAUGUGCUGCAUUUUUAUAAAAUGUGUCGGAAAAAGUCAUUGAUUUGAUUACAGUAGAUUCUGCCGUUUGAGAUCAGGCCUAGAUAAUUUUUCCAACAGAGGAUUGAGCAUCA
# B5: chr8:61654917:61654918:+_ENSG00000171316_ENST00000423902|hu_hu|FALSE|FALSE (ssRNA)
# RNA: GGGAGUUCUACAGUCCGACGAUCAUUCAUUGGAGUAUUAUUUGUAAGGCCUAAAUUUUGAUUCAUCCCUGUAUUGUUAACUAAUCCCUGAUUUAGGUUACUGUAAGGAUAUCGAGAAUACUGCCCUGAGUUGUUUAUAGUAGGCAACAGAGGAUUGAGCAUCA
# B6: chr7:141438946:141438947:+_ENSG00000106028_ENST00000265304|hu_mus|hu_hu_hu_mus_True|38_38 (ssRNA)
# RNA: GGGAGUUCUACAGUCCGACGAUCGACGAAAUACCUGUAACACAGGUCUUCGAAACAUGGCUUCUGUUUUUCUUACAACCUAAUCUUUAGGCUUUUCCUGACGAUCUGAAAGAAAAGAGAAAAAUGAUAAAUCAAGAAACUACACAACAGAGGAUUGAGCAUCA
# Molecular target: T1, UNK ZnF1-3 (human, UniProt Q9C0B0 31-174)
# T1 sequence: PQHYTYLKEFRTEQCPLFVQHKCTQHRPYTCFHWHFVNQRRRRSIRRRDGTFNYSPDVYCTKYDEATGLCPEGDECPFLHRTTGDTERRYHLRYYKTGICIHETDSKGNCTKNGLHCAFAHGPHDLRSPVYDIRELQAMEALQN
# Assay: nsRBNS (natural sequence RNA bind-n-seq); RBNS binding buffer (assumed for nsRBNS): 25 mM Tris pH 7.5, 150 mM KCl, 3 mM MgCl2, 0.01% Triton X-100, 500 ug/ml BSA, 20 U/ml SUPERase-In, 4 C; UNK is unkempt and MSI1 is Musashi-1; names of the RNAs are library labels; protein concentration not given here; high values mean tight binding
row,Binder,binding signal
1,B1,1.39 enrichment R
2,B2,1.08 enrichment R
3,B3,0.969 enrichment R
4,B4,1.56 enrichment R
5,B5,0.83 enrichment R
6,B6,0.683 enrichment R
